Data: the supplement of paper PMC11417369
± gives the standard deviation of the averaged measurements. The list shows a part of the results.

tested on: PfAP2-EXP AP2 domain (GST-tagged); assay: gcPBM binding intensity (ln(normalized median fluorescence intensity)); higher = stronger DNA binding
In short: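 GST-tagged P. falciparum DNA-binding domains produced in E. coli were incubated for 1 h on an Agilent 4 × 180k array of primer-extended double-stranded 36-bp intergenic genomic probes with negative controls. Binding intensity is the highest Masliner-normalised natural-log median intensity across replicate spots of either probe orientation, with bound protein detected by Alexa488 anti-GST antibody at 488 nm.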

Row | Sequence | gcPBM binding intensity (ln)
1 | TGTTCATTTTTAAAATGTACATATATGTTGTTCCAT [XGTACX_site8444] | 8.96 ± 0.42
2 | CTATATGTTAAATTCTCACACATTATTACAATTTAA [CACACA_site5979] | 8.6 ± 0.42
3 | ACGTATTTTTAAATATATGAATTATGTAACTTGTGA [CACACA_negctrl_site1446] | 8.16 ± 0.38
4 | GAATATGTGATATTTTGTACATAAAAATAATATATA [XGTACX_site6398] | 8.51 ± 0.4
5 | TATACTATTTAAATGTGTACTAAAAGAATATATTAT [XGTACX_site5238] | 8.54 ± 0.45
6 | AGTAGTCTGGAGAAAAGTACATAGTATCTGATAACC [XGTACX_site2028] | 8.81 ± 0.51
7 | TATTATAATATATTTGTGCACATAATATCTCCGCTA [GTGCAC_site9799] | 8.91 ± 0.26
8 | TGCTTATATATAAATTGTACTGAAAGAATAAAATAA [XGTACX_site4025] | 8.52 ± 0.51
9 | AAAAAGATAAAATATACATGCATATATAATATACAT [TGCATGCA_site488] | 8.49 ± 0.2
10 | AAAAAAAAAAAATACACACACATATTTATTTATATA [CACACA_site7114] | 8.2 ± 0.35
11 | AAAAAAGGTAAAAAAAGTACAAAAAAAAAATTAAAA [XGTACX_site6993] | 8.49 ± 0.55
12 | GTATAATATTTTAATGCACACACACTAATAAAAAAA [CACACA_site8939] | 8.78 ± 0.24
13 | TTGACAGGAACGTTGGTGCACGTACTGTTTTTCTTT [GTGCAC_site9389] | 8.77 ± 0.16
14 | TTTGGATAAAAAATATGTACACACATATAGATATCT [XGTACX_site5660] | 8.56 ± 0.5
15 | AAGTATAAATAAAGGCGTACACATGTAAATTATATT [XGTACX_site126] | 8.9 ± 0.13
16 | AAAATAATTCATGTTGGTAATAAGACTCGAGGTGAA [CACACA_negctrl_site1054] | 8.77 ± 0.54
17 | TAATAGATGTTATGAAGTACTAAATATTAAATATAA [XGTACX_site5717] | 8.55 ± 0.45
18 | TTTATTTTAAATGGGTGTACTCATTCCTTATGGAAG [XGTACX_site1397] | 8.46 ± 0.35
19 | GATTTATACAAATATGTACACACTAAATATATATTA [CACACA_site455] | 8.64 ± 0.24
20 | TTTATTTTATTTTCATGTACAAAAGGGGAATAATAA [XGTACX_site2704] | 8.71 ± 0.18
21 | ATATGTATGTATTTATTATTGTGCATTGTATTTATA [CACACA_negctrl_site664] | 8.69 ± 0.2
22 | TATTTATCTTTACGCACACACTTGCATGTACAAAAG [CACACA_site4753] | 9.32 ± 0.19
23 | AATACCCATATCTTCACACATACATAATAAATTATA [CACACA_site5367] | 8.55 ± 0.28

Row | Sequence | gcPBM binding intensity (ln)
24 | TTTATTTATGTGTGGGTGCATATACGTATGATGTAT | 9.12 ± 0.3
25 | TTTGAATATTCATATGCACACAAATTAATATACATA [CACACA_site8040] | 8.31 ± 0.25
26 | ATTTATTAATTACCATGTATAAAAAATTATATAATA [CACACA_negctrl_site581] | 8.19 ± 0.51
27 | GTCGTATAATTTTCAGTGCAATATTTGAATAAATGG [GTGCAC_site9404] | 8.91 ± 0.25
28 | ATACAATACAAAAACACACACAAAAAAAGAAAAGGA [CACACA_site2156] | 8.83 ± 0.67
29 | AGCAACTCAATATATATAAGAATTGTAATATAATAT [GTGCAC_negctrl_site429] | 8.34 ± 0.5
30 | ATATATTTATATATTTGTACATATAATATCTTCTTT [XGTACX_site8504] | 8.37 ± 0.38
31 | TAATAAATCAATAAATGTACATATATGTATAATTTC [XGTACX_site980] | 8.47 ± 0.33
32 | ATAATGTATTTATATATATATATATATTTTAATAAA [CACACA_negctrl_site460] | 8.24 ± 0.52
33 | AATTATAAAAAAAAAAAAAAAAAAAAAAACTAAATG [CACACA_negctrl_site1379] | 8.11 ± 0.47
34 | TTTAAAAATATATTCACACAGAAATAGTAAAAGTTA [CACACA_site4587] | 8.58 ± 0.34
35 | TATATATAGAAACACACACACACACCCAAGCGTAGC [CACACA_site63] | 8.73 ± 0.5
36 | ATTATAACTAAATAAATGATATATAATATTTTATTT [XGTACX_negctrl_site234] | 7.84 ± 0.34
37 | AATGTGTACGCACGCACACACAAAAAAATATATATA [CACACA_site2913] | 8.67 ± 0.4
38 | ATCTATATCTATAATACACACATAAATGGATATATA [CACACA_site6284] | 8.31 ± 0.39
39 | CAAGCCCTTCTGCTTACACACAGTAATTATTGTGCA [CACACA_site7399] | 8.62 ± 0.3
40 | TAAATATATTTATAAGCACACACTAATAAACCAACA [CACACA_site8022] | 8.91 ± 0.29
41 | TTATGCAATTTGTATTGTACATTCATGATATTAATA [XGTACX_site5070] | 8.62 ± 0.44
42 | ATTATACATATATAAGTGCAATAATGTTTTTTCCTT | 8.56 ± 0.19
43 | TATACATATGAAAATACACACATACATACATATATA [CACACA_site8484] | 8.53 ± 0.42
44 | AAGGTATATATAACTACACACTTATATATAATCTAA [CACACA_site92] | 8.16 ± 0.39
45 | AGGAACAAAATATACTGTACTTTATTATTTTCAAAA [XGTACX_site4421] | 8.35 ± 0.37
46 | ATACATATTTTACATTCACACAACAAATTTATATTT [CACACA_site4700] | 8.65 ± 0.42

Row | Sequence | gcPBM binding intensity (ln)
47 | ATTTTCCAAAATAATTGTACAGGAAAGAAATAATTA [XGTACX_site7424] | 8.64 ± 0.33
48 | TAATAAAATATGTACACACATACACCCATATATATA [CACACA_site1220] | 8.63 ± 0.39
49 | TGTAGTCTGGAGAAAAGTACATAGTATCTGGTAACC [XGTACX_site2025] | 8.62 ± 0.38
50 | AACAGACAGAAACACACACACATATATATATATATA [CACACA_site3394] | 10 ± 0.41
51 | ATATATTTTAATTGATGTACTTTTTTATGTTAATGA [XGTACX_site4316] | 8.42 ± 0.28
52 | TATATTTTGTTCTGTTGTACTAAAAAAATCTTTATA [XGTACX_site8372] | 8.56 ± 0.45
53 | TTACTTTTAACAAATGTGCGCAGTTATCACACAGAC | 8.81 ± 0.16
54 | ACAAAACAAAAAAACTCACACATATACGGCATGTCA [CACACA_site5608] | 8.66 ± 0.35
55 | ATATATATATATATATGTACTAAGAATTCTTTAAAA [XGTACX_site8476] | 10.3 ± 0.16
56 | ATTTATTTATTTATATGTACATATTTAAAGAGTTCA [XGTACX_site7631] | 8.52 ± 0.41
57 | AACAGTAACATTGAATGTACTTAATTTTAAGAAAAT [XGTACX_site2971] | 8.41 ± 0.26
58 | TATAAATATAAATATACACACATATATTTATTTATA [CACACA_site6890] | 8.13 ± 0.38
59 | ACACATAATATGTGTAGTACTTTTTCTTTAACATTA [XGTACX_site1436] | 8.64 ± 0.36
60 | ATTTATTGACTATTTACACACATATTTATTATAATA [CACACA_site1624] | 8.9 ± 0.52
61 | TTAAAATAAAGAAAATGTACATAAATTAAAATAAAG [XGTACX_site2281] | 8.85 ± 0.27
62 | TTTTTTTTTTTTTTTATAGTACATTACCAAAAAAAA [CACACA_negctrl_site1197] | 8.27 ± 0.39
63 | TGGGTAAACAGACACACACACATATAGATTTATATA [CACACA_site7026] | 8.65 ± 0.52
64 | ACACACATATATACATGTACATATATATATATATAT [XGTACX_site451] | 10.1 ± 0.3
65 | AAATTATATGAACATTGTACTTTATATATGTAAGAA [XGTACX_site1611] | 8.49 ± 0.38
66 | CTTCCAATAAAAAATGCACACATTGAAAATATTGAA [CACACA_site2688] | 8.54 ± 0.33
67 | TATTTTGTTCTTTCCACACACAAATACAGATATTGT [CACACA_site6097] | 8.86 ± 0.41
68 | ATTTGTATATATTAATGTACACACATGCGTATGTTC [XGTACX_site7579] | 8.73 ± 0.41
69 | TCTTATCCATATATTACACACTATAAATAGAAATTA [CACACA_site6274] | 8.39 ± 0.33

Row | Sequence | gcPBM binding intensity (ln)
70 | TATTCAACATAATATGCACACAAAAATTATGGAACG [CACACA_site8660] | 8.47 ± 0.49
71 | AATATATAATTTTATAGTACATAATAAAAGAACAGG [XGTACX_site724] | 8.96 ± 0.35
72 | TTATATTATGCTTGAATGCACTTTGAAGCACAATCT [GTGCAC_site9789] | 8.44 ± 0.071
73 | TTTAATTTTTTTTAAACACACACATTACATTCAAAA [CACACA_site7926] | 8.31 ± 0.28
74 | ATCACATAAAATATGAATATATATTTTATATATATA [CACACA_negctrl_site340] | 8.56 ± 0.16
75 | TATATTTACGTATGTCGAACGTTATTTTGAACAACC [CACACA_negctrl_site1261] | 8.62 ± 0.43
76 | TTAAAAAAAAAAAGGTGTACTATAATTTAATATCAC [XGTACX_site6316] | 8.45 ± 0.27
77 | TTTATACACAAAAAATGTACATATATATAATGAATT [XGTACX_site1195] | 8.8 ± 0.42
78 | CGTTTATATAGTGATGCATGCATTGTTAACATGGTT [TGCATGCA_site418] | 9.77 ± 0.28
79 | CGCACAAAAATATACACACACACATATATATTTATT [CACACA_site3645] | 8.69 ± 0.59
80 | TGTATGTCTTTATTTTGTACACAATATAAAAAATTA [XGTACX_site5441] | 8.79 ± 0.32
81 | ACACAAAAAATAAAAATATATATATATTATATATAT [CACACA_negctrl_site1489] | 8.615 ± 0.007
82 | TAATAATAAATTGGTTGTACAACCTTATACAGAATA [XGTACX_site2592] | 8.63 ± 0.33
83 | TAAAAAAATATATATACATGCATAGAAAAAAAAAAA [TGCATGCA_site552] | 8.88 ± 0.29
84 | TTTTTTTATTAAAAATGTACAAAAATGAAAAAATAA [XGTACX_site8279] | 8.69 ± 0.4
85 | CATATAATTTTATGGGTGCATTTTTTTGTAAGACCA | 8.96 ± 0.57
86 | ATTTAATTTTTTTTTTTTTTTTTTCAATCCCCTTTT [CACACA_negctrl_site1013] | 8.21 ± 0.53
87 | TTTTAAACAAAAATTTGTACACAATAATTAAATATA [XGTACX_site6755] | 8.52 ± 0.5
88 | CATTTTAAAGAAAATACACACAAAAATAAATATATA [CACACA_site1395] | 8.54 ± 0.47
89 | TTTATATTATTTTAAACATGCACAAGTATAATTTAT [TGCATGCA_site233] | 8.43 ± 0.28
